34 variants from the RNAGym collection of RNA variant scans (doi:10.1093/nar/gkz1192) can be followed below.

B1: CPEB3 Ribozyme (parent)
chain: UAACAGGGGGCCACAGCAGAAGCGUUCACGUCGCAGCCCCUGUCAGAUUCUGGUGAAUCUGCGAAUUCUGCUGUAUAUCUC

The source gives no read counts; variants with many changes may rest on few reads.

In this series the parent is B1. Briefly: self-cleavage, relative activity (ratio to wild type); higher = more cleavage; in vitro, sequencing. Put shortly: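 Barcoded CPEB3 ribozyme mutants, produced by rounds of error-prone PCR, self-cleaved while being transcribed with T7 RNA polymerase for 5 hours at 37°C and during a subsequent 15 min DNase I step before EDTA was added. Sequencing of template-switched cDNA on Illumina gave cleaved and total reads, and DNA sequencing assigned barcodes to variants. Each variant's relative activity is its cleaved/total read fraction divided by the unmutated ribozyme's fraction, averaged across three batches. A variant needed a minimum of 5 reads.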
In the case of UGGCAGGGGGCCACAGCGGAAGCGUUCACGUCGCAGCCACUGACAGAUUCUGGUGAAUCUGCGAAUUCUGCUGUAUAUCUC, the self-cleavage stood at 0.6.

For UGACAGGGGGCCACAGCUGAAGCGUUCUCGUCGCAGCCCCUGUCAGAUUCUGGUGAACCUGCGAUUUCUGCUGUAUAUCUC, the self-cleavage stood at 0.22.

As for UGGCUGGGGGCCUCAGCAGAGGCGUUCACGUCGCAGCCCCUGUCAGAUUCUGGUGAAUCUGCGAAUUCUGCUGUAUAUCUC, the self-cleavage is 0.41.

On to UGACAGGGGGCCUCAGCAGAAGCGUUCACGUCGCAGCCCCUGUCAGAUUCUGGUGAAUCUGCGAAUUCUGCUGUAUACCUC, for which the self-cleavage amounted to 0.69.

For UCACAGGAGGCCACAGCAGAAGCGUUCACGUCGCGGCCCCUGUCAGAUUCUGGUGAAUCUGCGAAUUCUGCCGGAUAUCUC, the self-cleavage worked out at 0.35.

With UCACAGGGGGCCACAGCAGAAGCGUCCACGUCGCAGCCCCUGACAGAUUCUGGUGAAUCUGCGAAUUCUGCUGUAUAUCAC, the self-cleavage was determined as 0.5.

On to UGGCAGGGGGCCACAGCAGAAGCGUUCACGUCGCAGCCCCUGUCAAAUUCUGGUGAAUCUGCGAAUUCUGCUGUAUAUCUC, for which the self-cleavage is 0.5.

Turning to UCACAGGGGGCCACAGCAGAAGCGUUCACGUCGCAGCCCCUGCCAGAUUCUAGUGAAUCUGCGAAUUCUGCUGUAUAUCUC, the self-cleavage came out at 0.81.

On to UGACUGGGGGCCACAGCGGAAGCGUUCACGUCGCAGCCCCUGUCAGAUACUGGUGAAUCUGCGAAUUCUGCUGUAUAUCUC, for which the self-cleavage worked out at 0.11.

As for UGACGGGGGGCCACAGCAGAAGCGUUCACGUAGCAGCCCCUGUCAGAUUCUGGUGAAUCCGCGAAUUCUGCUGUAUGUCUC, the self-cleavage was 0.3.

On to UGACGGGGGGCCACAGCAGAGGCGGUCACGUCGCAGCCCCUGUCAGAUUCUGGUGAAUCUGCGAACUCUGCUGUAUAUCCC, for which the self-cleavage was 0.12.

With UGACUAGUGGCCACGGCAGAAGCGUUCACGUCGCAGCCCCCGUCAGAUUCUGGUGGAUCUGCGAAUUCUGCUGUAUAUCUC, the self-cleavage worked out at 0.35.

Take UGACUGGGGGCCACAGCAGAGGCGUACACGUCGCAGCCCCUGUCAGAUUCUGGCGAAUCUGCGAAUUCUGCUGUAUAUCUC: the self-cleavage worked out at 0.39.

Turning to UGACAGGGGGCCUCGGCAGGAGCGUUCACGUCGCAGCCCCUGUCGGAUUCUGGUGAAUCUGCGAAUUCUGCUGUAAAUCUC, the self-cleavage turned out to be 0.06.

On to UGGCAGGGGGCCACAGCAGAAGCGUUCACGUCGCAGCCUCUGUCAGAUUCUGGUGAAUCUGCGAAUUCUGCUGUAUAUCUC, for which the self-cleavage worked out at 0.74.

For the variant UGACUGGGGGCCACAGCAGAAGCGUUCAAGUCGCAGCCCCUGUCAGAUUCUGGUGAAUCAGCGAAAUCUGCUGCAUAUCUC, the self-cleavage was 0.27.

As to UGACGGGGGGCCACAGCAGACGCGUUCGCGUCGCAGCCCCUGUCAGAUUCUGGUGAAUCUGCGAAUUCUGCUGUAUAUCUC, the self-cleavage amounted to 0.21.

In the case of UGACAGGGGGCCACUGUAGAAGCGUUCACGUCGCAGCCCCUGUCCGAUUCUGGUGAAUCUGCGAAUUCUGCUGUAUAUCUC, the self-cleavage came to 0.3.

On to UGACAGGGGGCCACAGCAGUAGCGUUCACGUCGCAGCCCCUGUCAGAUUCUGGUGAACCUGCGAAUUCUGCUGUAUAUCUC, for which the self-cleavage is 0.1.

UGACAGGGGGCCACAGCUGAGGCGUUCCCGUCGCAGCCCCUGUCAGAUUCUGGUGAAUCCGCGGAUUCUGCUGUAUAUCUC: the self-cleavage is 0.2.

On to UCACAGGGGGCCACAGCAGAAGCGCUCACGUCGCAGCCCCUGUCAGAUACUGAUGAAUCUGUGAAUUCUGCUGUAUAUCUC, for which the self-cleavage is 0.33.

Consider UGACUGGGGGCCACAGCAGAAGCGUUCACGUCGCAGCCCCUGUCAGGUUCUGGUGAAUCUGCGAAUUCUGCUGUAUAUCUC, for which the self-cleavage worked out at 0.95.

On to UGGCAGGGGGCCACAGCGGAAGCGUCCACGUCGCAGCCCCUGUCAGAUUCUGGUGAAUCUGCGAAUUCUGCUGUAUAUCUC, for which the self-cleavage was found to be 0.64.

With UGACAGGGGGCCACAGCAGCAGCGUUCACGUCGCAGCCCCUGUCAGAUUCUGGUGAAUCUGCGAAUUCUGCUGUAUAUCCC, the self-cleavage was determined as 0.43.

As to UGACAGGGGGCCACAGCCGAAGCGUUCACGUCGCAGCCCCUGUCAGAUCCUGGUGAAUCUGCGAAUUCUGCUGUAUAUCUC, the self-cleavage is 0.1.

As for UGACAGGGGGCCGCAGCAGAAGCGUUCACGUCGCAGCCCCUGUCAGAUUCUGGUGAAUCUGCGAAUUCUGCUGUAUAUCAC, the self-cleavage is 0.8.

Turning to UGACGGGGGGCCGCAGCAGAAGCGUUCGCGUCGCAGCCCCUGUCAGAUUCGGGUGAAUCUGCGAAUUCUGCUGUAUAUCUC, the self-cleavage was found to be 0.56.

Consider UGACAGGGGGCCACUGCAGGAGCGUUCACGUCGCAGCCCCUAUCGGAUACUGGUGAAUCAGCGAAUUCUGCUGUAUAUCUC, for which the self-cleavage was found to be 0.04.

UGACAGGGGGCCACAGCAGUAGCGUUCACGUCGCAGCCCCUGUCAGAUUCUGGUGAUUCUACGUAUUCUGCUGUAUAUCUC: the self-cleavage worked out at 0.12.

Take UGACAGGGGGCCACGGCGGAAGCGUUCACGUCGCAGCCCCUGUCGGAUUCUGGUGAAUCUGCGAAUUCUGCUGUAUAUCUC: the self-cleavage was found to be 0.44.

Take UGACAGGGGGCCGCAGCAGAAGCGUUCAGGUCGCAGCCCCUGUCAGAUUCUGGUGAAUCUGCGAAUUCUGCUGUAUUUCUC: the self-cleavage turned out to be 0.26.

Turning to UGACAGGGGGCCGCAGCAGAAGCGUUCGCGUCGCAGCCCCUGUCAGAUUCUGGUGAAUCUGCGAAUUCUGCUGUUUAUCUC, the self-cleavage was 0.19.

For UGACGGGGGGCCACAGCAGAAGCGUUCACGACGCAGCCCCUGUCAGAUUCUGGCGAAUCUGCGAAUUCUGCUGUAUAUCUC, the self-cleavage amounted to 0.14.

For UGACUGGGGGCCACAGCAGAAGCGUUCACGACGCAGCCUCUGUCAGAUUCUGGUGAAUCUGCGAAUUCUGCUGUAUAUCUC, the self-cleavage is 0.39.
